Test results: the supplement of paper PMC12217912
This is one part of the list. The full chains were built here from the parent and the listed change. Inactive controls read about 0.05.

B1: TEV protease; numbered along this chain (parent)
chain: MGESLFKGPRDYNPISSSICHLTNESDGHTTSLYGIGFGPFIITNKHLFRRNNGTLVVQSLHGVFKVKDTTTLQQHLVDGRDMIIIRMPKDFPPFPQKLKFREPQREERICLVTTNFQTKSMSSMVSDTSCTFPSGDGIFWKHWIQTKDGQCGSPLVSTRDGFIVGIHSASNFTNTNNYFTSVPKNFMELLTNQEAQQWVSGWRLNADSVLWGGHKVFMVKPEEPFQPVKEATQL

Variants of: B1
Assay: raw area under fraction-flipped curve 0-4 h after induction (AUC4h, not background-subtracted), DNA-recorder readout of cleavage of the substrate (dimensionless); higher = more cleavage of the substrate by the protease variant
Settings: temperature: 34 °C; time window: 0-4 h after rhamnose induction
Description: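 In vivo DNA recorder in E. coli TOP10(DE3) ΔrhaA at 34 °C. Each TEVp single-site mutant (parent TEVp 0) is paired with a single-site variant of the 7-mer TEVs (canonical ENLYFQ|S). The substrate sits between flexible linkers in a Bxb1-sfGFP-TEVs-SsrA fusion, so cleavage stabilises Bxb1 and speeds flipping of a recombination array, read by NGS. The value is the raw area under the fraction-flipped curve over 0-4 h after rhamnose induction (AUC4h), with ≥20 reads per time point. It is not background-subtracted; inactive controls average about 0.047.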
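Further: Bxb1 expression induced with 0.2% (w/v) L-rhamnose at OD600 near 0.5, cultures sampled hourly, flipped fraction per protease–substrate barcode pair counted by paired-end Illumina sequencing.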

Row | Variant | area with substrate ENLYAQS | area with substrate ENLYDQS | area with substrate ENLYGQS | area with substrate ENLYHQS | area with substrate ENLYIQS | area with substrate ENLYKQS | area with substrate ENLYNQS | area with substrate ENLYPQS | area with substrate ENLYRQS | area with substrate ENLYSQS | area with substrate ENLYTQS | area with substrate ENLYVQS | area with substrate ENLYEQS | area with substrate ENLYMQS | area with substrate ENLYWQS | area with substrate ENLYYQS | area with substrate ENLYCQS | area with substrate ENLYLQS | area with substrate ENLYQQS
1 | T192H | 0.061 | 0.0667 | 0.0653 | 0.0517 | 0.116 | 0.0497 | 0.0545 | 0.0742 | 0.0488 | 0.0682 | 0.0784 | 0.132 |  |  |  |  |  |  | 
2 | Q105F | 0.0757 |  | 0.0672 | 0.0618 | 0.0975 | 0.071 | 0.0725 |  |  |  | 0.092 |  | 0.077 | 0.0826 | 0.0673 | 0.0576 |  |  | 
3 | C152F | 0.0617 | 0.062 | 0.0573 | 0.0595 | 0.0511 | 0.0646 | 0.0495 | 0.0579 | 0.0581 | 0.0634 | 0.0448 | 0.0636 | 0.0673 | 0.0522 | 0.0642 |  | 0.0567 | 0.0631 | 0.0577
4 | N177E | 0.0804 | 0.0609 | 0.0717 | 0.0651 | 0.0801 | 0.0659 | 0.0578 | 0.0699 | 0.0634 | 0.07 |  | 0.105 | 0.0571 | 0.0754 | 0.0656 | 0.0487 | 0.0863 | 0.0763 | 0.0719
5 | A232H | 0.0635 | 0.0596 | 0.043 | 0.0941 | 0.133 | 0.0613 | 0.0733 |  | 0.0618 |  |  |  | 0.0732 |  | 0.0776 |  |  |  | 
6 | D128N | 0.082 | 0.0744 | 0.0617 | 0.0756 |  | 0.0716 | 0.06 |  | 0.0613 | 0.08 |  |  | 0.0684 | 0.0906 | 0.0731 |  |  |  | 0.0629
7 | L48W | 0.0617 | 0.0662 | 0.0553 | 0.0596 | 0.0524 | 0.0503 | 0.0635 | 0.0553 | 0.0613 | 0.054 |  | 0.0579 | 0.0597 | 0.0303 | 0.0661 |  |  |  | 0.0593
8 | T192Q | 0.0904 | 0.0547 | 0.0535 | 0.0798 | 0.101 | 0.054 | 0.0804 | 0.0555 | 0.0642 | 0.075 | 0.0747 |  | 0.0615 | 0.0848 | 0.0833 | 0.0587 | 0.154 | 0.0888 | 0.0592
9 | S32P | 0.0629 | 0.0606 | 0.0547 |  | 0.0593 | 0.0688 | 0.0939 | 0.0406 |  | 0.0523 | 0.0599 | 0.0561 | 0.0611 |  | 0.057 | 0.0423 |  |  | 0.0636
10 | P104F | 0.0795 | 0.0532 | 0.0488 | 0.0476 |  | 0.0608 | 0.0566 |  |  | 0.0588 |  | 0.053 |  |  | 0.0516 |  |  |  | 0.0539
11 | V200H | 0.0647 | 0.0566 | 0.0453 | 0.0665 | 0.132 | 0.0612 | 0.0645 | 0.065 | 0.0341 | 0.0643 | 0.0652 | 0.0881 | 0.0548 | 0.0711 | 0.0652 | 0.0593 | 0.0841 | 0.0742 | 0.062
12 | Q105W | 0.066 | 0.0568 | 0.0637 | 0.0667 | 0.103 | 0.098 | 0.0669 | 0.065 | 0.0692 | 0.0548 | 0.0773 | 0.121 | 0.0693 | 0.0773 |  | 0.0628 | 0.0804 |  | 0.0598
13 | S16E | 0.0766 | 0.0633 | 0.0658 | 0.0699 | 0.106 | 0.0481 | 0.0614 | 0.0755 | 0.0663 |  |  | 0.109 | 0.0644 | 0.0807 | 0.064 | 0.0662 | 0.0876 |  | 
14 | T30S | 0.0611 | 0.0653 | 0.0771 | 0.0662 | 0.128 | 0.0616 | 0.0715 | 0.0784 |  | 0.0917 |  | 0.128 | 0.0666 | 0.103 | 0.0839 | 0.0395 |  |  | 0.0606
15 | G162C | 0.0743 | 0.06 | 0.0622 | 0.067 | 0.0919 | 0.0283 |  | 0.0725 | 0.067 | 0.0691 |  | 0.136 | 0.0681 | 0.08 | 0.0619 | 0.0717 | 0.088 |  | 0.0616
16 | P40G | 0.0912 | 0.0529 |  | 0.074 | 0.133 | 0.0561 | 0.0628 | 0.0723 | 0.0498 | 0.0753 |  | 0.104 | 0.065 |  | 0.0913 | 0.0698 |  |  | 0.0713
17 | L48A | 0.0535 | 0.0487 | 0.0659 | 0.0703 | 0.0674 | 0.0612 | 0.0684 | 0.0623 |  | 0.0616 | 0.0604 | 0.0695 | 0.068 | 0.0606 | 0.0687 | 0.068 | 0.0752 | 0.0635 | 0.0638
18 | R10S | 0.0856 | 0.0595 | 0.0714 | 0.0701 | 0.104 | 0.0415 | 0.0637 | 0.0761 | 0.0475 | 0.088 |  | 0.109 | 0.0599 | 0.0929 | 0.0858 | 0.0563 | 0.0742 | 0.0863 | 0.0547
19 | G28L | 0.0798 | 0.0658 | 0.0593 | 0.058 | 0.101 | 0.0477 | 0.0689 | 0.069 | 0.0541 | 0.0601 | 0.0629 | 0.0994 | 0.0455 | 0.082 |  |  | 0.0818 | 0.0713 | 0.0611
20 | S16I | 0.0875 |  |  | 0.0602 | 0.117 | 0.0657 | 0.069 | 0.0618 | 0.0588 |  | 0.0995 | 0.0814 | 0.0722 | 0.0869 |  | 0.0628 |  | 0.0711 | 
21 | G8K | 0.0715 | 0.0627 | 0.0687 | 0.0778 |  | 0.0588 |  | 0.0738 | 0.0594 |  |  | 0.113 |  |  | 0.0895 |  |  |  | 0.0838
22 | R106D | 0.0813 | 0.0549 | 0.0609 | 0.0797 | 0.118 | 0.0656 | 0.0669 | 0.0768 | 0.0658 | 0.0805 | 0.0987 | 0.115 | 0.0629 | 0.0872 | 0.0684 | 0.0772 | 0.116 | 0.0864 | 
23 | S16D | 0.0759 | 0.0588 |  | 0.0679 | 0.127 | 0.0625 | 0.0653 | 0.0694 |  | 0.0675 | 0.0752 |  | 0.0673 | 0.0783 | 0.0041 | 0.0505 |  |  | 0.041
